Test results published in the antibiotic and cytotoxicity screens of Wong et al. (2023).
The list shows a part of the results.

These molecules were tested on HSkMC (human skeletal muscle cells) (assay: cytotoxicity call (relative viability < 0.9)). Conditions: 10 µM.

SMILES | cytotoxicity call
O=C(C[C@@H]1CC[C@@H]2[C@H](COC[C@@H](O)CN2C(=O)c2ccccc2)O1)N1CCOCC1 | inactive
Cn1c(=O)c2c(ncn2CC(=O)N2CCN(c3ccccc3F)CC2)n(C)c1=O | inactive
COc1ccc(S(=O)(=O)Nc2cccc3c2O[C@H](CN(C)Cc2ccc(Cl)c(Cl)c2)[C@H](C)CN([C@H](C)CO)C3=O)cc1 | inactive
Oc1cc(C2CCCCC2)cc(C2CCCCC2)c1 | inactive
C[C@@H]1CN([C@@H](C)CO)C(=O)c2cccc(NC(=O)c3ccncc3)c2O[C@@H]1CN(C)Cc1ccc(Oc2ccccc2)cc1 | inactive
C[C@@H]1CN([C@@H](C)CO)C(=O)c2cc(NC(=O)Nc3cccc4ccccc34)ccc2O[C@H]1CN(C)Cc1ccc(Cl)c(Cl)c1 | inactive
[N-]=[N+]=Nc1ccccc1[C@H]1OC(c2ccc(OCCCO)cc2)=N[C@@]1(CCS(=O)(=O)c1ccccc1)C(=O)NC[C@@H](O)CO | inactive
Cc1ccc(S(=O)(=O)N(C)C[C@@H]2OCCCC[C@@H](C)Oc3ccc(NC(=O)c4ccccc4)cc3C(=O)N([C@@H](C)CO)C[C@@H]2C)cc1 | inactive
COc1ccc(CNC(=O)C[C@@H]2CC[C@@H]3[C@H](COc4ccc(NC(=O)C(C)C)cc4C(=O)N3C)O2)cc1 | inactive

The molecules below were run on HepG2 (assay: cytotoxicity call (relative viability < 0.9)). Conditions: 10 µM.

SMILES | cytotoxicity call
C=CC1CN2CCC1CC2C(O)c1ccnc2ccc(OC)cc12.O=C(O)C(O)C(O)C(O)C(O)CO (stereo not given) | inactive
C[C@@H]1CN([C@@H](C)CO)S(=O)(=O)c2ccc(C#Cc3ccccc3)cc2O[C@H]1CN(C)S(=O)(=O)c1ccccc1F | inactive
CCOc1cc(OCC)cc(C(=O)N[C@@H](Cc2ccc(-n3cc(-c4ccc(C(=O)NO)s4)nn3)cc2)C(=O)OC)c1 | inactive
O=C(Nc1ccccc1)C1=C[C@@H](c2ccc3c(c2)Cc2ccccc2-3)C[C@@H](OCc2ccc(CO)cc2)O1 | inactive
C[C@@H]1CCCCO[C@@H](CN(C)S(=O)(=O)c2ccccc2)[C@@H](C)CN([C@@H](C)CO)C(=O)c2cc(NC(=O)Nc3cccc4ccccc34)ccc2O1 | inactive
COc1ccc(S(=O)(=O)Nc2ccc3c(c2)C(=O)N([C@H](C)CO)C[C@@H](C)[C@@H](CN(C)C(=O)Nc2c(C)noc2C)OCCCC[C@@H](C)O3)cc1 | inactive
COc1ccc(cc1)CN1C[C@]2(CN(C2)S(=O)(=O)c2cn(cn2)C)c2c([nH]c3cc(ccc23)OC)[C@H]1CO | inactive
Nc1ccc(-n2cc(CCC(=O)NO)nn2)cc1 | inactive
COc1ccc(S(=O)(=O)N(C)C[C@H]2Oc3ccc(NS(C)(=O)=O)cc3CC(=O)N([C@H](C)CO)C[C@H]2C)cc1 | inactive
Cc1ccc(S(=O)(=O)Nc2ccc3c(c2)C(=O)N([C@@H](C)CO)C[C@@H](C)[C@H](CN(C)CC2CCCCC2)OCCCC[C@H](C)O3)cc1 | inactive
COc1cccc(S(=O)(=O)Nc2ccc3c(c2)OC[C@@H](C)N(C(=O)Cc2cccnc2)C[C@@H](C)[C@H](OC)CN(C)C3=O)c1 | inactive
C[C@@H]1CCCCO[C@@H](CN(C)C(=O)CCC(F)(F)F)[C@@H](C)CN([C@H](C)CO)C(=O)c2cc(NS(=O)(=O)c3ccc(Cl)cc3)ccc2O1 | inactive
O=C(C[C@H]1C=C[C@@H](NC(=O)CN2CCOCC2)[C@H](CO)O1)NCCc1ccncc1 | inactive
CCC(=O)NC[C@H](Cc1ccc(OCCc2nc(-c3ccccc3)oc2C)cc1)N/C(C)=C\C(=O)c1ccc(C(F)(F)F)cc1 | inactive
C[C@@H]1CCCCO[C@@H](CN(C)C(=O)Nc2cccc3ccccc23)[C@H](C)CN([C@@H](C)CO)C(=O)c2cc(NC(=O)Nc3cccc4ccccc34)ccc2O1 | active
Cc1noc(C)c1NC(=O)Nc1ccc2c(c1)C(=O)N([C@H](C)CO)C[C@H](C)[C@H](CN(C)C(=O)Nc1ccc(F)cc1)OCCCC[C@H](C)O2 | inactive
C[C@H]1CCCCO[C@H](CN(C)C)[C@@H](C)CN([C@@H](C)CO)C(=O)c2cc(NC(=O)CCCN(C)C)ccc2O1 | inactive
CN1CCN(CCO)C(=O)C12CCN(S(=O)(=O)C1CC1)CC2 | inactive
COCC(=O)N1[C@@H]2CC[C@H]1COC2 | inactive
NCCN1CCO[C@H](c2ccccc2)C1 | inactive
C[C@@H]1CN([C@@H](C)CO)C(=O)c2cc(NC(=O)Nc3cccc4ccccc34)ccc2O[C@@H]1CN(C)C(=O)Nc1ccccc1 | inactive
